Measured values taken from patent US20210130473A1, “TGFßR1 INHIBITOR-ASGR ANTIBODY CONJUGATES AND USES THEREOF” (Silverback Therapeutics, Inc., priority 2019, published 2021).
Changes are numbered by the printed parent chain. Names may count otherwise.

B1: hzG2D-26: humanized G2D clone; VL "grafted into the human germline sequence VKI-L1 with JK4 to generate hzG2D VLa (SEQ ID NO:131)" (antibody)
heavy: QVQLVQSGAEVKKPGASVKVSCKASGYTFTGYYMHWVRQAPGQRLEWMGRINPNNGATNYNQNFKDKASLTVDTSASTAYMELSSLRSEDTAVYYCTSVNFYYWGQGTTVTVSS[… human IgG1 constant region …]
light: DIQMTQSPSSLSASVGDRVTITCKASQVINSYLSWFQQKPGKAPETLIYRANTLVDGVPSRFSGSGSGTDFTLTISSLQPEDFATYYCLQYAEFPYTFGGGTKVEIKRTVAAPSVFIFPPSDEQLKSGTASVVCLLNNFYPREAKVQWKVDNALQSGNSQESVTEQDSKDSTYSLSSTLTLSKADYEKHKVYACEVTHQGLSSPVTKSFNRGEC
B2: hzG2D-27: humanized G2D clone; VL "grafted into the human germline sequence VKI-L1 with JK4 to generate hzG2D VLa (SEQ ID NO:131)" (antibody)
heavy: B1 heavy
light: B1 light with E45K, T46S, Q79E, P80Y
B3: hzG2D-28: humanized G2D clone; VL "grafted into the human germline sequence VKI-L1 with JK4 to generate hzG2D VLa (SEQ ID NO:131)" (antibody)
heavy: B1 heavy
light: B1 light with E45K, T46S, F71Y, T72S
B4: hzG2D-29: humanized G2D clone; VL "grafted into the human germline sequence VKI-L1 with JK4 to generate hzG2D VLa (SEQ ID NO:131)" (antibody)
heavy: B1 heavy with R38K
light: B1 light with E45K, T46S
B5: hzG2D-30: humanized G2D clone; VL "grafted into the human germline sequence VKI-O2 with JK4 to generate hzG2D VLb (SEQ ID NO:247)" (antibody)
heavy: B1 heavy with R38K
light: B1 light with F36Y, E45K, T46L
B6: hzG2D-2: humanized G2D clone; VL "grafted into the human germline sequence VKI-L1 with JK4 to generate hzG2D VLa (SEQ ID NO:131)" (antibody)
heavy: B1 heavy with T28S, K67R, A68V, S69T, L70I, V72R, T97A, S98R, V110L
light: B1 light with E45K, T46S
B7: hzG2D-31: humanized G2D clone; VL "grafted into the human germline sequence VKI-L1 with JK4 to generate hzG2D VLa (SEQ ID NO:131)" (antibody)
heavy: B1 heavy with L83F, S84H
light: B1 light with E45K, T46S
B8: hzG2D-32: humanized G2D clone; VL "grafted into the human germline sequence VKI-O2 with JK4 to generate hzG2D VLb (SEQ ID NO:247)" (antibody)
heavy: B1 heavy with L83F, S84H
light: B1 light with F36Y, E45K, T46L
B9: hzG2D-33: humanized G2D clone; VL "grafted into the human germline sequence VKI-L1 with JK4 to generate hzG2D VLa (SEQ ID NO:131)" (antibody)
heavy: B1 heavy with R87T
light: B1 light with E45K, T46S
B10: hzG2D-34: humanized G2D clone; VL "grafted into the human germline sequence VKI-O2 with JK4 to generate hzG2D VLb (SEQ ID NO:247)" (antibody)
heavy: B1 heavy with R87T
light: B1 light with F36Y, E45K, T46L
B11: hzG2D-3: humanized G2D clone; VL "grafted into the human germline sequence VKI-L1 with JK4 to generate hzG2D VLa (SEQ ID NO:131)" (antibody)
heavy: B1 heavy with K67R, A68V, S69T, L70I, V72R, V110L
light: B1 light with E45K, T46S
B12: hzG2D-4: humanized G2D clone; VL "grafted into the human germline sequence VKI-L1 with JK4 to generate hzG2D VLa (SEQ ID NO:131)" (antibody)
heavy: B1 heavy with S69T, L70I, V72R, T97A, S98R, V110L
light: B1 light with E45K, T46S
B13: hzG2D-5: humanized G2D clone; VL "grafted into the human germline sequence VKI-L1 with JK4 to generate hzG2D VLa (SEQ ID NO:131)" (antibody)
heavy: B1 heavy with T28S, K67R, A68V, S69T, L70I, V72R, V110L
light: B1 light with E45K, T46S
B14: hzG2D-6: humanized G2D clone; VL "grafted into the human germline sequence VKI-L1 with JK4 to generate hzG2D VLa (SEQ ID NO:131)" (antibody)
heavy: B1 heavy with K67R, A68V, T97A, S98R, V110L
light: B1 light with E45K, T46S
B15: hzG2D-7: humanized G2D clone; VL "grafted into the human germline sequence VKI-L1 with JK4 to generate hzG2D VLa (SEQ ID NO:131)" (antibody)
heavy: B1 heavy with T28S, S69T, L70I, V72R, T97A, S98R, V110L
light: B1 light with E45K, T46S
B16: hzG2D-8: humanized G2D clone; VL "grafted into the human germline sequence VKI-L1 with JK4 to generate hzG2D VLa (SEQ ID NO:131)" (antibody)
heavy: B1 heavy with T28S, K67R, A68V, T97A, S98R, V110L
light: B1 light with E45K, T46S
B17: hzG2D-9: humanized G2D clone; VL "grafted into the human germline sequence VKI-L1 with JK4 to generate hzG2D VLa (SEQ ID NO:131)" (antibody)
heavy: B1 heavy with S69T, L70I, V72R, V110L
light: B1 light with E45K, T46S
B18: hzG2D-10: humanized G2D clone; VL "grafted into the human germline sequence VKI-L1 with JK4 to generate hzG2D VLa (SEQ ID NO:131)" (antibody)
heavy: B1 heavy with K67R, A68V, V110L
light: B1 light with E45K, T46S
B19: hzG2D-12: humanized G2D clone; VL "grafted into the human germline sequence VKI-L1 with JK4 to generate hzG2D VLa (SEQ ID NO:131)" (antibody)
heavy: B1 heavy with T28S, S69T, L70I, V72R, V110L
light: B1 light with E45K, T46S
B20: hzG2D-13: humanized G2D clone; VL "grafted into the human germline sequence VKI-L1 with JK4 to generate hzG2D VLa (SEQ ID NO:131)" (antibody)
heavy: B1 heavy with T28S, K67R, A68V, V110L
light: B1 light with E45K, T46S
B21: hzG2D-14: humanized G2D clone; VL "grafted into the human germline sequence VKI-L1 with JK4 to generate hzG2D VLa (SEQ ID NO:131)" (antibody)
heavy: B1 heavy with T28S, T97A, S98R, V110L
light: B1 light with E45K, T46S

The molecules below were run against T1, HepG2 cells (which express ASGR1) (Homo sapiens, UniProt P07306) (assay: Guava HepG2 cell binding screen of anti-ASGR1 mAbs). Conditions: humanized G2D clones; two numbers per cell, their meaning is not given.
T1 construct: endogenous in cells; host or cells: HepG2
T1 sequence (P07306 1-291): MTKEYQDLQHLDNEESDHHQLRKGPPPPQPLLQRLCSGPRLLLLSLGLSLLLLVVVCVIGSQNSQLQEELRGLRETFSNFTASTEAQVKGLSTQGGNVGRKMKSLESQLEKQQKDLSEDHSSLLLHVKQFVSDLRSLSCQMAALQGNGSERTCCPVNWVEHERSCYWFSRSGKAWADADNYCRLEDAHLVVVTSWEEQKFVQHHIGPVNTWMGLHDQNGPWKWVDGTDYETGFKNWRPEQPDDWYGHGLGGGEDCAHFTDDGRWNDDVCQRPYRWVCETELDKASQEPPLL
Method: Additionally, hybridomas producing monoclonal antibodies (mAbs) specific for human ASGR1 were prepared from Balb/C mice immunized with ASGR1-AviHis at a service provider using their propriety protocol. Antibody heavy and light chain sequences were obtained, amplified, and cloned. Clone supernatants containing the expressed mAbs were screened for binding to a human ASGR1-IgG1Fc fusion protein, and those with a positive signal as measured by enzyme linked immunosorbent assay (ELISA) were screened for cell binding on HepG2 cells (which express ASGR1). […] The isolated mAbs were further analyzed for the additional characteristics including, for example, titer, low aggregate content following protein A purification, high titer, lack of cross-blocking of ligand GalNac, calcium sensitivity, and cross-reactivity with rat ASGR1 protein.

**Q.** Which “Guava HepG2 Screen” value does the source give for B1 here?
**A.** 185/114

**Q.** B2 was tested. Which “Guava HepG2 Screen” value did it give?
**A.** 191/116

**Q.** B3 was tested. Which “Guava HepG2 Screen” value did it give?
**A.** 145/92

**Q.** With B4 as the molecule, how does the “Guava HepG2 Screen” value read?
**A.** 189/108

**Q.** For B5, which “Guava HepG2 Screen” value is on record?
**A.** 198/115

**Q.** How did the “Guava HepG2 Screen” value turn out when B6 was run?
**A.** 38/20

**Q.** For B7, which “Guava HepG2 Screen” value is on record?
**A.** 168/95

**Q.** Which “Guava HepG2 Screen” value does the source give for B8 here?
**A.** 167/103

**Q.** How did the “Guava HepG2 Screen” value turn out when B9 was run?
**A.** 164/85

**Q.** Which “Guava HepG2 Screen” value does the source give for B10 here?
**A.** 194/109

**Q.** How did the “Guava HepG2 Screen” value turn out when B11 was run?
**A.** 131/95

**Q.** Which “Guava HepG2 Screen” value does the source give for B12 here?
**A.** 55/22

**Q.** With B13 as the molecule, how does the “Guava HepG2 Screen” value read?
**A.** 91/55

**Q.** For B14, which “Guava HepG2 Screen” value is on record?
**A.** 39/23

**Q.** With B15 as the molecule, how does the “Guava HepG2 Screen” value read?
**A.** 46/22

**Q.** For B16, which “Guava HepG2 Screen” value is on record?
**A.** 31/21

**Q.** B17 was tested. Which “Guava HepG2 Screen” value did it give?
**A.** 155/117

**Q.** B18 was tested. Which “Guava HepG2 Screen” value did it give?
**A.** 149/63

**Q.** How did the “Guava HepG2 Screen” value turn out when B19 was run?
**A.** 158/113

**Q.** B20 was tested. Which “Guava HepG2 Screen” value did it give?
**A.** 140/83

**Q.** Which “Guava HepG2 Screen” value does the source give for B21 here?
**A.** 37/16
